“And” between values parts separate entries of the source, which are not always exact repeats. Equal entries are not always repeated. In all, about 110,000 compounds went through this assay and about 40 (0.04%) were called active. Inconclusive results, whose numbers are uncertain, are shown with a selection of clear calls. The call rests on the fitted dose curve; in most records, active means well fitted curve in the direction sought with a large enough effect in the signal ratio (not every such curve was filed as active); inconclusive means small, poorly fitted or top-dose-only effect, or a change in a side signal; inactive means flat fitted curve, though single readings scatter; the % refers to the signal ratio.
Assay: IkB Signaling;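 further: 0% = basal untreated cells and 100% = reference inhibitor full response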
Settings: ABC-DLBCL IkBa-CBG/CBR dual luciferase ratio (green luciferase fused to IkBa over red control in OCI-Ly3 lymphoma cells), 4 h, scaled: untreated 0%
Outline: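 In this assay, an IκBα–CBG68 fusion accumulates when IKK-driven degradation is blocked; native CBR normalizes for cell number. OCI-Ly3 cells were treated 4 h with compound and doxycycline, then green and red light read after Chroma-Glo addition.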

[1] = IkBa stabilization activation: at 57.1 µM (top of the series), proteasome inhibitor 100% unless noted

Row | Compound | IkBa stabilization activation [1] | IkBa stabilization activation (at 57.1 µM (top of the series), proteasome inhibitor 100%)
1 | COc1cc(CNC(=O)CCCC/C=C\C(C)C)ccc1O | inconclusive: 1.51% [signal inhibitor] and inconclusive: 1.24% [signal inhibitor] | –
2 | CCOC(=O)CC(NC(=O)Cn1nnc(-c2ccc(C(F)(F)F)cc2)n1)c1ccc(OC)cc1 (configuration not stated) | inactive | –
3 | CNCCC=C1c2ccccc2CCc2ccccc21 | inactive | –
4 | CN(c1ccc(O)cc1)c1nc(-c2ccccc2)cs1 | inconclusive: 8.72% [signal inhibitor] | –
5 | O=C(NC1CC(=O)N(c2cccc(F)c2)C1)C1CCCC1 (configuration not stated) | inactive | –
6 | COc1ccccc1-n1ncc2c(=O)[nH]c(SCC(=O)Nc3ccc(Cl)cc3)nc21 | inconclusive: 5.01% [signal inhibitor] | –
7 | Cc1ccc(CNC(=O)c2cccn2-c2nnc(N3CCCCC3)s2)cc1 | inactive | –
8 | Cc1ccc2ccccc2c1COC(=O)c1nonc1N | inactive | –
9 | CC12CC(NC(=O)N1c1cccc(C(=O)NCc3ccc4c(c3)OCO4)c1)c1cc(Cl)ccc1O2 (configuration not stated) | inconclusive: 11.8% [signal inhibitor] | –
10 | COc1cc(-c2nnc3sc(-c4ccncc4)nn23)cc(OC)c1OC | inactive | –
11 | Cc1csc(NC(=O)CCCSc2nc3ccccc3s2)n1 | inconclusive: 0.392% [signal inhibitor] | –
12 | COc1cccc(-n2cc(C(=O)NCCc3ccc(C)cc3)c3ccccc3c2=O)c1 | inconclusive: 5.17% [signal inhibitor] | –
13 | COc1ccc(-c2nc3c4ccccc4n(CC(=O)N4CCN(c5ccccc5OC)CC4)c(=O)n3n2)cc1 | inconclusive: -1.49% [signal inhibitor] | –
14 | Cc1onc(-c2ccccc2Cl)c1C(=O)Nc1cccc2nsnc12 | inactive | –
15 | CCOC(=O)c1cnc(SCC(=O)Nc2sc(C)c(C)c2C#N)nc1N | inactive | –
16 | O=S(=O)(NCc1ccc(F)cc1)c1ccc(-c2cnc(C3CC3)o2)cc1 | inconclusive: -0.222% [signal inhibitor] | –
17 | O=C(Nc1cccc2nsnc12)c1cccs1 | inconclusive: -0.776% [signal inhibitor] | inactive: -0.04%
18 | Cc1ccc(C(=O)c2cn(CC(=O)NC3CCCCC3)c3nc(C)ccc3c2=O)cc1 | inconclusive: 0.311% [signal inhibitor] | –
19 | Cc1c(C(=O)N2CCCC2)oc2c1-c1nn(CC(=O)NCCCOC(C)C)cc1CC2 | inconclusive: -0.771% [signal inhibitor] | –
20 | CCSc1nnc2c(n1)OC(c1ccc(C)cc1)N(C(C)=O)c1ccccc1-2 (configuration not stated) | inconclusive: 5.53% [signal inhibitor] | –
21 | COc1ccc(CNC(=O)CCCN2C(=O)CSc3c2c(C)nn3-c2ccccc2)c(OC)c1 | inconclusive: 2.52% [signal inhibitor] | –

From PubChem BioAssay AID445 (National Center for Advancing Translational Sciences (NCATS), 2006)
